Data taken from PubChem BioAssay AID504333 (National Center for Advancing Translational Sciences (NCATS), 2011).
“And” between values parts separate entries of the source, which are not always exact repeats. Equal entries are not always repeated. The campaign covered roughly 360,000 compounds. About 16,000 (4.4%) were called active. This list was built around the results that the source calls inconclusive (neither active nor inactive); the mix of calls is not that of the screen. Calls follow the shape of the dose curve; as a rule, active = well fitted inhibition curve with a large enough effect; inconclusive = small, poorly fitted or top-dose-only effect; inactive = no such curve, though single readings can be large or run the other way. Potencies beside an inconclusive call are fits to weak or partial responses and may not hold up.

target: Bromodomain adjacent to zinc finger domain protein 2B (Homo sapiens) (UniProt Q9UIF8); experiment: qHTS Assay for Inhibitors of BAZ2B; settings: AlphaScreen BAZ2B-H3K14Ac peptide displacement; activity change, negative = inhibition: at 114 µM (top of the series) unless noted; also: nearly all actives have a fitted effect of over 60% in size
UniProt Q9UIF8, sequence (Q9UIF8 whole entry, looked up, the tested form may be a part): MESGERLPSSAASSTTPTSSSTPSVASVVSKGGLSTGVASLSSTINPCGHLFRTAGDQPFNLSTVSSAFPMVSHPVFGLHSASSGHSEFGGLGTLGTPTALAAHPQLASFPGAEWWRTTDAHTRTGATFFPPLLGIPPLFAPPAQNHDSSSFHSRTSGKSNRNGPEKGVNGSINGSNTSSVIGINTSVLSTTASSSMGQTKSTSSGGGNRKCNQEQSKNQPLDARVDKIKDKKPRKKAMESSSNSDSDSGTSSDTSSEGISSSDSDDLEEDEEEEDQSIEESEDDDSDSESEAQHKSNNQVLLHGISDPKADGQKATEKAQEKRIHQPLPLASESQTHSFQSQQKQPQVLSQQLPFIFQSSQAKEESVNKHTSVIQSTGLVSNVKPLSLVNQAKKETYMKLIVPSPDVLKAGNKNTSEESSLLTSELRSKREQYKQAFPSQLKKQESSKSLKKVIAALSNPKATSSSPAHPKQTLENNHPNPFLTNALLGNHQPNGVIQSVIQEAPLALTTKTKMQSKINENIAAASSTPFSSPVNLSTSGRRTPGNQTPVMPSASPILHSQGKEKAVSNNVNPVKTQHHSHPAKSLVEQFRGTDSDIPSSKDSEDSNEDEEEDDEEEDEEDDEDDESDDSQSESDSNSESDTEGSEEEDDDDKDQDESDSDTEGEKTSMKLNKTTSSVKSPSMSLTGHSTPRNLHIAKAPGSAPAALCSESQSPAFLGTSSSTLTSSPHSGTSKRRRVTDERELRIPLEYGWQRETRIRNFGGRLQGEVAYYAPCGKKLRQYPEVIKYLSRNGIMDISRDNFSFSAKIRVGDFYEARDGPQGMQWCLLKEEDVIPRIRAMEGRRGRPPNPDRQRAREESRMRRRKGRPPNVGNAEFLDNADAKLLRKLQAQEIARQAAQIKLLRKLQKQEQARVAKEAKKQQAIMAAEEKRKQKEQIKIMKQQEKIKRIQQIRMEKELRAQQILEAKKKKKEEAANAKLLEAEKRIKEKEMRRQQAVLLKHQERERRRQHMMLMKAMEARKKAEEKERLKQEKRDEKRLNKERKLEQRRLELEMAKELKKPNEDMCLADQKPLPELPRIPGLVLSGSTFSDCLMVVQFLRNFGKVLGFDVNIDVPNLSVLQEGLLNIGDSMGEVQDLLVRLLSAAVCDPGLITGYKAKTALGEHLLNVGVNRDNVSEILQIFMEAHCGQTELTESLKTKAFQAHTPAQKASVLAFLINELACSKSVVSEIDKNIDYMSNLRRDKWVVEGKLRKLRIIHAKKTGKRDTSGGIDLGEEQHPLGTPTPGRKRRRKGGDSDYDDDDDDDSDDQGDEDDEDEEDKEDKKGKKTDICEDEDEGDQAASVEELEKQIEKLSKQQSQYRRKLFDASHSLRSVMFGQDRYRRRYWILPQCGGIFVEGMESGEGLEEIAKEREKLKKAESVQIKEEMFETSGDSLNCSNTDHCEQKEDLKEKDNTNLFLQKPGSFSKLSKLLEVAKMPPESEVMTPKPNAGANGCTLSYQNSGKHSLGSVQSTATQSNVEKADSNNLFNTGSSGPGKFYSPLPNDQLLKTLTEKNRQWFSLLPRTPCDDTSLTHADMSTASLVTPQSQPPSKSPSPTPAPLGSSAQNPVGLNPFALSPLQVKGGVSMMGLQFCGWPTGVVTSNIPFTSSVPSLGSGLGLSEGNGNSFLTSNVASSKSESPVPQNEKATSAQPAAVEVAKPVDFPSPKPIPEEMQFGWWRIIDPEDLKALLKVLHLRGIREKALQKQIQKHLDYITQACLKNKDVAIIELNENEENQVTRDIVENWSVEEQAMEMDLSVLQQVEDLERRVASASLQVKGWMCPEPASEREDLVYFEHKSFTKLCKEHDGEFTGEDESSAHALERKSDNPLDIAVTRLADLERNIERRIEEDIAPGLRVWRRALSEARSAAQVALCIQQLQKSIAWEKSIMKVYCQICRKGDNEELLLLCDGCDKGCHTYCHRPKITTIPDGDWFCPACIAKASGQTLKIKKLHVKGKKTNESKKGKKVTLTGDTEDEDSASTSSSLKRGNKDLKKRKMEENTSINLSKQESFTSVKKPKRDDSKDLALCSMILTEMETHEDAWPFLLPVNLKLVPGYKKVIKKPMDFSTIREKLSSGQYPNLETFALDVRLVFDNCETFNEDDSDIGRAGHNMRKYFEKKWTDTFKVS
Summary of the method: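 In this displacement format the biotinylated H3(5-23) peptide acetylated at Lys14 serves as ligand at 50 nM, with BAZ2B at 50 nM in PBS pH 7.4 containing 0.01% Tween-20. Donor and acceptor beads are 10 ug/mL final.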
% is scaled to controls: 0 for no effect and ±100 for the full control effect; potency is read from the fitted curve at half-maximal effect; tags tell the direction and shape of the fitted curve.

Row | Structure (SMILES) | Potency | activity change, negative = inhibition
1 | COc1ccccc1N1CCN(/N=C/c2ccc(OC)c(OC)c2OC)CC1 | active: 31.6 µM | –
2 | COc1ccc(NC(=O)Cc2coc3cc(C)c(C(C)C)cc23)cc1S(=O)(=O)N1CCOCC1 | inconclusive: 44.7 µM [inhibitor, partial curve] | –
3 | COc1cccc(NC(=S)NCCc2ccccn2)c1 | active: 56.2 µM | –
4 | CN1CCN(C(=O)C2=C[C@H](c3csc4ccccc34)C[C@H](OCCCCO)O2)CC1 | inconclusive: 89.1 µM [inhibitor, single point] | –
5 | Cc1cccc(N2CCN(Cc3oc(CO)cc(=O)c3O)CC2)c1C | – | inactive: -36.9%
6 | CCN(CC(=O)NC(C)C)C(=O)c1ccc(S(=O)(=O)N(C)c2ccccc2OC)cc1 | – | inactive: -8.27%
7 | Cc1ccc2[nH]c(C)c(CCNC(=O)c3cc4cc(Br)ccc4oc3=O)c2c1 | inconclusive: 89.1 µM [inhibitor, single point] | –
8 | Cc1nn(-c2ccc(N3CCCC3)nn2)c(C)c1CCC(=O)N1CCN(c2ccc(F)cc2)CC1 | inconclusive: 79.4 µM [inhibitor, single point] | –
9 | CCOC(=O)c1ccc(NC(=O)c2c(NCc3ccc(OC)c(OC)c3OC)sc3c2CCC(C)C3)cc1 (configuration not stated) | inconclusive: 79.4 µM [inhibitor, single point] | –
10 | CC(C)c1nc(SCC(=O)Nc2ccc(N(C)C)cc2)c2ccccc2n1 | inconclusive: 11.2 µM [inhibitor, partial curve, poor fit] | –
11 | Cc1nc(N)sc1-c1csc(Nc2ccccc2)n1 | active: 50.1 µM | –
12 | OC(COc1ccc2c(c1)CCC2)CN1CCN(c2cccc(Cl)c2)CC1 (configuration not stated) | inconclusive: 44.7 µM [inhibitor, partial curve] | –
13 | Fc1cccc(NC(=S)N2CCn3cccc3C2c2cccnc2)c1 (configuration not stated) | inconclusive: 44.7 µM [inhibitor, partial curve] | –
14 | Cc1cc2c(cc(C(=O)OC(C(=O)NCc3ccco3)C(C)C)n2C)o1 (configuration not stated) | inconclusive: 89.1 µM [inhibitor, single point] | –
15 | N/C(=N\O)c1ccccc1-n1cccc1 | inconclusive: 79.4 µM [inhibitor, single point] | –
16 | O=C(COC(=O)c1cc(S(=O)(=O)N2CCOCC2)ccc1F)Nc1c(Cl)cccc1C(F)(F)F | – | inactive: 9.53%
17 | O=[N+]([O-])c1cc(Cl)cc(C2=NCCN2)c1 | – | inactive: 3.92%
18 | COc1cc(NC(=O)c2noc3c2CC(C(C)(C)C)CC3)cc(OC)c1OC (configuration not stated) | – | inactive: -18.7%
19 | CC(C)NC(=O)C1CCN(Cc2cccc(Oc3ccccc3)c2)CC1 | inconclusive: 100 µM [inhibitor, single point] | –
20 | Cc1nc2ccccn2c1/C(O)=C1\C(=O)C(=O)N(CCCn2ccnc2)C1c1ccncc1 (configuration not stated) | inconclusive: 89.1 µM [inhibitor, single point] | –
21 | COCCN(CC(=O)Nc1cccc(C)c1C)C(=O)c1cc2c(s1)CCC2 | inconclusive: 79.4 µM [inhibitor, single point] | –
22 | Cc1nn2c(C)c(C(=O)NCc3cccc(Br)c3)cnc2c1-c1ccccc1 | – | inactive: 0.248%
23 | Cc1cccn2cc(-c3cccc(NC(=O)c4cccs4)c3)nc12 | inconclusive: 50.1 µM [inhibitor, partial curve] | –

Row | Structure (SMILES) | Potency | activity change, negative = inhibition
24 | CCN(CC)S(=O)(=O)c1ccc(C)c(NC(=O)COC(=O)CCC(=O)c2cccs2)c1 | inconclusive: 50.1 µM [inhibitor, partial curve] | –
25 | CC(C)(C)n1nnnc1C(c1cccs1)N(Cc1ccc(Cl)cc1)CC1CCCO1 (configuration not stated) | inconclusive: 89.1 µM [inhibitor, single point] | –
26 | CCOC(=O)c1c(C)oc(NC(=O)CCl)c1C(=O)OCC | inconclusive: 89.1 µM [inhibitor, single point] | –
27 | N#Cc1nc(-c2ccccc2F)oc1N1CCN(C(=O)c2ccco2)CC1 | inconclusive: 70.8 µM [inhibitor, partial curve] | –
28 | O=C(O)c1ccc(N/N=C/c2ccc(C(F)(F)F)cc2)cc1 | inconclusive: 50.1 µM [inhibitor, partial curve] | –
29 | Cc1cccc(Oc2cc(NC(=O)Cn3cnc([N+](=O)[O-])n3)cc([N+](=O)[O-])c2)c1 | inconclusive: 44.7 µM [inhibitor, partial curve] | –
30 | COc1cc(OC)c2cc[nH]c2c1 | – | inactive: -35.7%
31 | CCN(CC)CCOc1ccc(/C(=C(/Cl)c2ccccc2)c2ccccc2)cc1 | inconclusive: 31.6 µM [inhibitor, partial curve] and inconclusive: 22.4 µM [inhibitor, full curve] | –
32 | CCN1C(=O)/C(=C/C=C2/Sc3ccc4ccccc4c3N2CCO)SC1=S | inconclusive: 79.4 µM [inhibitor, single point] | –
33 | COc1ccc(C(=O)N2CCN(Cc3ccccc3)CC2)cc1[N+](=O)[O-] | inconclusive: 89.1 µM [inhibitor, single point] | –
34 | Cc1cc(/C=C2/NC(=O)NC2=O)c(C)n1-c1sc2c(c1C#N)CCCC2 | inconclusive: 50.1 µM [inhibitor, partial curve] | –
35 | COc1ccc(Cl)cc1NC(=O)c1noc2c1CCc1ccccc1-2 | – | inactive: -7.83%
36 | O=C(CN1C(=O)c2ccccc2Sc2ncccc21)Nc1cccc(C(F)(F)F)c1 | – | inactive: -16.5%
37 | COc1ccc(Nc2cc(C)c3cc(NC(=O)COc4cccc(C)c4)ccc3n2)cc1 | inconclusive: 44.7 µM [inhibitor, partial curve] | –
38 | CN(C)CCNC(=O)c1ccc2c(=O)n(Cc3ccc(Cl)cc3)c(=S)[nH]c2c1 | inconclusive: 31.6 µM [inhibitor, full curve, poor fit] | –
39 | CCCCn1c(=O)c2ccccc2n2c(=S)[nH]nc12 | inconclusive: 50.1 µM [inhibitor, partial curve] | –
40 | CCOc1cc(C(=O)Nc2ccc3nc(N4CCN(C)CC4)cc(C)c3c2)cc(OCC)c1OCC | – | inactive: -0.939%
41 | CC1=NN(C(=O)c2ccccc2C)C(O)(c2ccc(Cl)cc2)C1 (configuration not stated) | inconclusive: 79.4 µM [inhibitor, single point] | –
42 | O=C(O)CCc1ccc(-c2ccccc2)n1-c1cccc(C(=O)O)c1 | inconclusive: 56.2 µM [inhibitor, partial curve] | –
43 | CCOC(=O)c1scc(-c2ccc(C)cc2)c1S(=O)(=O)N1CCN(c2ccccc2)CC1 | inconclusive: 35.5 µM [inhibitor, full curve] | –
44 | O=C(Nc1cccc(-c2cccc(F)c2)c1)C1CCN(Cc2ccc(CO)o2)CC1 | inconclusive: 89.1 µM [inhibitor, single point] | –
45 | Cc1cccc(N2CCN(c3ccc(NC(=O)/C=C\C(=O)O)cc3)CC2)c1 | active: 35.5 µM | –
46 | Cc1c(Cl)cccc1NC(=S)N1CCN(Cc2ccccc2)CC1 | inconclusive: 89.1 µM [inhibitor, single point] | –

Row | Structure (SMILES) | Potency | activity change, negative = inhibition
47 | COc1ccc(C(=O)NCCNc2ccc([N+](=O)[O-])cc2)cc1 | inconclusive: 79.4 µM [inhibitor, single point] | –
48 | NC(=O)/C(N=Nc1ccccc1)=N/Nc1ccccc1 | – | inactive: -27.6%
49 | CCc1ccc(NC(=O)CCCc2nnc3n(C(C)CC)c(=O)c4sccc4n23)cc1 (configuration not stated) | inconclusive: 89.1 µM [inhibitor, single point] | –
50 | CCOc1cc(CNCc2ccccn2)cc(Cl)c1OCC | active: 50.1 µM | –
51 | COC(=O)c1sccc1-c1ccc(/C=N/OC(=O)c2ccccc2)o1 | – | inactive: 0.613%
52 | Cc1cc(C)c2cc(CN(Cc3ccco3)C(=S)NCC3CCCO3)c(=O)[nH]c2c1 (configuration not stated) | inconclusive: 20 µM [inhibitor, single point] | –
53 | COc1ccccc1CNC(=O)c1ccc(N2CCOCC2)c([N+](=O)[O-])c1 | active: 79.4 µM | –
54 | O=[N+]([O-])c1c(Nc2cccc(O)c2)cc(Cl)c2nonc12 | inconclusive: 39.8 µM [inhibitor, partial curve] | –
55 | COc1ccccc1Oc1ccc(N/C=C/C(=O)c2ccco2)cc1 | inconclusive: 50.1 µM [inhibitor, partial curve] | –
56 | COc1ccc(NC(=O)Cc2ccc(C)cc2)c([N+](=O)[O-])c1 | inconclusive: 39.8 µM [inhibitor, full curve] | –
57 | COc1ccc(NC(=O)c2ccco2)cc1NC(=O)c1cc(Br)ccc1Cl | – | inactive: -5.86%
58 | CCCCN(CC(=O)NCc1ccc(F)cc1)C(=O)c1ccco1 | inconclusive: 89.1 µM [inhibitor, single point] | –
59 | COc1ccc(Nc2nc(N)c3ccccc3n2)c(OC)c1 | inconclusive: 79.4 µM [inhibitor, single point] | –
60 | O=C(COC(=O)c1ccc([N+](=O)[O-])s1)Nc1ncc(C(F)(F)F)cc1Cl | inconclusive: 44.7 µM [inhibitor, partial curve] | –
61 | CCCCC1=CC2=CC(=O)C(C)(OC(=O)C3CCCC3)C(=O)C2=CO1 (configuration not stated) | active: 50.1 µM | –
62 | O=C(CCl)c1ccc2c(c1)CCN2C(=O)C1CC1 | inconclusive: 79.4 µM [inhibitor, partial curve] | –
63 | COc1ccc(Nc2nc(NCc3ccco3)nc(N/N=C/c3ccccc3Cl)n2)cc1 | inconclusive: 35.5 µM [inhibitor, partial curve] | –
64 | CN(Cc1ccco1)c1ncnc2ccc(-c3ccoc3)cc12 | inconclusive: 89.1 µM [inhibitor, single point] | –
65 | COc1cc(-c2nc(-c3ccccc3)c(-c3ccc(Br)cc3)[nH]2)cc(OC)c1O | active: 28.2 µM | –
66 | Cc1ccc(NC(=S)NC(=O)c2ccc(F)cc2)cc1S(=O)(=O)Nc1cccc(Cl)c1 | inconclusive: 89.1 µM [inhibitor, partial curve] | –
67 | Nc1ccccc1SCc1cc([N+](=O)[O-])cc2c1OCOC2 | inconclusive: 79.4 µM [inhibitor, single point] | –
